Many values rest on one well or one pass, so single values are uncertain.
Legend:
[1] = tested on: CHO-K1; assay: relative survival (nuclei to bead ratio vs DMSO control) (% of vehicle control); higher = more surviving cells
Procedure: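 Flow-cytometric in vitro micronucleus assay (Litron MicroFlow) in CHO-K1 cells in 96-well plates, 19 concentrations (4.5-200 µM, n=1 per concentration). Without S9, cells were exposed for 24 h and sampled at 48 h. With Aroclor 1254-induced rat liver S9, cells were exposed for 3-4 h and sampled at 27-28 h. Read-outs are %MN and %hypodiploid nuclei relative to nucleated events, and relative survival as the nuclei-to-bead ratio versus the 1% DMSO vehicle control (x100).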

[2] = tested on: CHO-K1; assay: micronucleus frequency (% of nucleated events); higher = more micronuclei (genotoxic)
[3] = tested on: CHO-K1; assay: hypodiploid nuclei frequency (% of nucleated events); higher = more hypodiploid events (aneugenic)
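Wherever hypodiploid nuclei frequency (% of nucleated events) is given: hypodiploid nuclei gated on a flow cytometer with 488 nm excitation after SYTOX Green staining, cultures at 37 °C, positive controls vinblastine without S9 and cyclophosphamide with S9.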
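Wherever micronucleus frequency (% of nucleated events) is given: cells lysed with nuclei stained by SYTOX Green, then micronucleus-gated events counted against nucleated events by flow cytometry with 488 nm excitation.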
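Wherever relative survival (nuclei to bead ratio vs DMSO control) is given: Lysed-cell nuclei stained with SYTOX Green and counted against counting beads by flow cytometry at 488 nm excitation, with vinblastine (no S9) and cyclophosphamide (plus S9) as positive controls.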

COc1ccc2c(c1)c(CC(=O)O)c(C)n2C(=O)c1ccc(Cl)cc1 [Indomethacin]
Conditions	hypodiploid nuclei frequency, [3] [%]	micronucleus frequency, [2] [%]	relative survival, [1]
concentration: 4.5 (µM), S9 metabolic activation: with S9, exposure time: 3-4 hours	0.16	1.2	109
concentration: 4.5 (µM), S9 metabolic activation: without S9, exposure time: 24 hours	0.62	1.9	113
concentration: 5.63 (µM), S9 metabolic activation: with S9, exposure time: 3-4 hours	0.22	1.16	108
concentration: 5.63 (µM), S9 metabolic activation: without S9, exposure time: 24 hours	0.42	1.78	112
concentration: 7.04 (µM), S9 metabolic activation: with S9, exposure time: 3-4 hours	0.16	1.32	123
concentration: 7.04 (µM), S9 metabolic activation: without S9, exposure time: 24 hours	0.54	1.5	92.8
concentration: 8.8 (µM), S9 metabolic activation: with S9, exposure time: 3-4 hours	0.2	1.14	140
concentration: 8.8 (µM), S9 metabolic activation: without S9, exposure time: 24 hours	0.44	1.46	130
concentration: 11 (µM), S9 metabolic activation: with S9, exposure time: 3-4 hours	0.18	0.98	137
concentration: 11 (µM), S9 metabolic activation: without S9, exposure time: 24 hours	0.52	1.62	124
concentration: 13.7 (µM), S9 metabolic activation: with S9, exposure time: 3-4 hours	0.16	1.06	152
concentration: 13.7 (µM), S9 metabolic activation: without S9, exposure time: 24 hours	0.46	1.12	117
concentration: 17.2 (µM), S9 metabolic activation: with S9, exposure time: 3-4 hours	0.16	1.42	176
concentration: 17.2 (µM), S9 metabolic activation: without S9, exposure time: 24 hours	0.5	1.24	107
concentration: 21.5 (µM), S9 metabolic activation: with S9, exposure time: 3-4 hours	0.24	1.44	158
concentration: 21.5 (µM), S9 metabolic activation: without S9, exposure time: 24 hours	0.66	1.32	108
concentration: 26.8 (µM), S9 metabolic activation: with S9, exposure time: 3-4 hours	0.24	1.1	112
concentration: 26.8 (µM), S9 metabolic activation: without S9, exposure time: 24 hours	0.56	1.4	117
concentration: 33.6 (µM), S9 metabolic activation: with S9, exposure time: 3-4 hours	0.16	1.16	97.9
concentration: 33.6 (µM), S9 metabolic activation: without S9, exposure time: 24 hours	0.44	1.56	96.3
concentration: 41.9 (µM), S9 metabolic activation: with S9, exposure time: 3-4 hours	0.3	1.08	116
concentration: 41.9 (µM), S9 metabolic activation: without S9, exposure time: 24 hours	0.58	2.02	113
concentration: 52.4 (µM), S9 metabolic activation: with S9, exposure time: 3-4 hours	0.2	1.36	111
concentration: 52.4 (µM), S9 metabolic activation: without S9, exposure time: 24 hours	0.46	1.32	114
concentration: 65.5 (µM), S9 metabolic activation: with S9, exposure time: 3-4 hours	0.2	1.58	98.8
concentration: 65.5 (µM), S9 metabolic activation: without S9, exposure time: 24 hours	0.6	2.02	117
concentration: 81.9 (µM), S9 metabolic activation: with S9, exposure time: 3-4 hours	0.12	0.88	114
concentration: 81.9 (µM), S9 metabolic activation: without S9, exposure time: 24 hours	0.62	1.56	134
concentration: 102 (µM), S9 metabolic activation: with S9, exposure time: 3-4 hours	0.18	1.18	124
concentration: 102 (µM), S9 metabolic activation: without S9, exposure time: 24 hours	0.68	1.5	96.9
concentration: 128 (µM), S9 metabolic activation: with S9, exposure time: 3-4 hours	0.14	0.98	118
concentration: 128 (µM), S9 metabolic activation: without S9, exposure time: 24 hours	0.62	1.82	135
concentration: 160 (µM), S9 metabolic activation: with S9, exposure time: 3-4 hours	0.16	1.76	105
concentration: 160 (µM), S9 metabolic activation: without S9, exposure time: 24 hours	0.76	1.52	98.6
concentration: 200 (µM), S9 metabolic activation: with S9, exposure time: 3-4 hours	0.08	1.52	115
concentration: 200 (µM), S9 metabolic activation: without S9, exposure time: 24 hours	0.7	1.68	93.4

NNC(=O)c1ccncc1 [Isoniazid]
Conditions	hypodiploid nuclei frequency, [3] [%]	micronucleus frequency, [2] [%]	relative survival, [1]
concentration: 1.98 (µM), S9 metabolic activation: with S9, exposure time: 3-4 hours	0.44	2.92	80.2
concentration: 1.98 (µM), S9 metabolic activation: without S9, exposure time: 24 hours	1.16	2.48	103
concentration: 2.48 (µM), S9 metabolic activation: with S9, exposure time: 3-4 hours	0.4	2.52	73.3
concentration: 2.48 (µM), S9 metabolic activation: without S9, exposure time: 24 hours	1.04	2	94.5
concentration: 3.1 (µM), S9 metabolic activation: with S9, exposure time: 3-4 hours	0.44	2.48	84.8
concentration: 3.1 (µM), S9 metabolic activation: without S9, exposure time: 24 hours	1.26	2.82	83.9
concentration: 3.87 (µM), S9 metabolic activation: with S9, exposure time: 3-4 hours	0.46	2	86
concentration: 3.87 (µM), S9 metabolic activation: without S9, exposure time: 24 hours	1.18	2.86	108
concentration: 4.84 (µM), S9 metabolic activation: with S9, exposure time: 3-4 hours	0.44	2.2	84.1
concentration: 4.84 (µM), S9 metabolic activation: without S9, exposure time: 24 hours	1.1	2.1	131
concentration: 6.05 (µM), S9 metabolic activation: with S9, exposure time: 3-4 hours	0.42	2.28	86.8
concentration: 6.05 (µM), S9 metabolic activation: without S9, exposure time: 24 hours	0.8	1.84	110
concentration: 7.56 (µM), S9 metabolic activation: with S9, exposure time: 3-4 hours	0.44	3.06	94.7
concentration: 7.56 (µM), S9 metabolic activation: without S9, exposure time: 24 hours	1.36	1.84	119
concentration: 9.45 (µM), S9 metabolic activation: with S9, exposure time: 3-4 hours	0.34	2.76	96.5
concentration: 9.45 (µM), S9 metabolic activation: without S9, exposure time: 24 hours	1.18	1.84	115
concentration: 11.8 (µM), S9 metabolic activation: with S9, exposure time: 3-4 hours	0.3	1.7	111
concentration: 11.8 (µM), S9 metabolic activation: without S9, exposure time: 24 hours	0.78	1.96	88.5
concentration: 14.8 (µM), S9 metabolic activation: with S9, exposure time: 3-4 hours	0.26	1.82	88.3
concentration: 14.8 (µM), S9 metabolic activation: without S9, exposure time: 24 hours	1.28	1.98	83
concentration: 18.5 (µM), S9 metabolic activation: with S9, exposure time: 3-4 hours	0.28	1.76	90.1
concentration: 18.5 (µM), S9 metabolic activation: without S9, exposure time: 24 hours	1.38	2.36	85.8
concentration: 23.1 (µM), S9 metabolic activation: with S9, exposure time: 3-4 hours	0.28	1.82	91.9
concentration: 23.1 (µM), S9 metabolic activation: without S9, exposure time: 24 hours	1.5	2.66	76.2
concentration: 28.8 (µM), S9 metabolic activation: with S9, exposure time: 3-4 hours	0.22	1.82	99.4
concentration: 28.8 (µM), S9 metabolic activation: without S9, exposure time: 24 hours	1.12	2.64	84.8
concentration: 36 (µM), S9 metabolic activation: with S9, exposure time: 3-4 hours	0.46	1.48	89.1
concentration: 36 (µM), S9 metabolic activation: without S9, exposure time: 24 hours	1.76	2.7	101
concentration: 45.1 (µM), S9 metabolic activation: with S9, exposure time: 3-4 hours	0.22	1.54	93.4
concentration: 45.1 (µM), S9 metabolic activation: without S9, exposure time: 24 hours	1.82	2.48	109
concentration: 56.3 (µM), S9 metabolic activation: with S9, exposure time: 3-4 hours	0.36	1.34	97.7
concentration: 56.3 (µM), S9 metabolic activation: without S9, exposure time: 24 hours	1.66	2.74	109
concentration: 70.4 (µM), S9 metabolic activation: with S9, exposure time: 3-4 hours	0.2	1.72	106
concentration: 70.4 (µM), S9 metabolic activation: without S9, exposure time: 24 hours	1.74	3.06	91
concentration: 88 (µM), S9 metabolic activation: with S9, exposure time: 3-4 hours	0.26	1.64	95.4
concentration: 88 (µM), S9 metabolic activation: without S9, exposure time: 24 hours	2.5	2.48	74.9
